Data as given in the supplement of paper PMC3334620.
Whole data set: some 33,000 sequences, median “E-score (-0.5 to 0.5)” near -0.011, cut for the highest 2% near 0.28. Some of the results follow.

Each sequence was assayed against T1, Gcr1 (UniProt P07261) (assay: PBM E-score (8-mer binding enrichment) (E-score (-0.5 to 0.5)); higher = stronger / more preferred TF binding; most listed sequences are background and not binding sites). Settings: protein concentration: 100 nM; construct: GST-full length.
T1 sequence: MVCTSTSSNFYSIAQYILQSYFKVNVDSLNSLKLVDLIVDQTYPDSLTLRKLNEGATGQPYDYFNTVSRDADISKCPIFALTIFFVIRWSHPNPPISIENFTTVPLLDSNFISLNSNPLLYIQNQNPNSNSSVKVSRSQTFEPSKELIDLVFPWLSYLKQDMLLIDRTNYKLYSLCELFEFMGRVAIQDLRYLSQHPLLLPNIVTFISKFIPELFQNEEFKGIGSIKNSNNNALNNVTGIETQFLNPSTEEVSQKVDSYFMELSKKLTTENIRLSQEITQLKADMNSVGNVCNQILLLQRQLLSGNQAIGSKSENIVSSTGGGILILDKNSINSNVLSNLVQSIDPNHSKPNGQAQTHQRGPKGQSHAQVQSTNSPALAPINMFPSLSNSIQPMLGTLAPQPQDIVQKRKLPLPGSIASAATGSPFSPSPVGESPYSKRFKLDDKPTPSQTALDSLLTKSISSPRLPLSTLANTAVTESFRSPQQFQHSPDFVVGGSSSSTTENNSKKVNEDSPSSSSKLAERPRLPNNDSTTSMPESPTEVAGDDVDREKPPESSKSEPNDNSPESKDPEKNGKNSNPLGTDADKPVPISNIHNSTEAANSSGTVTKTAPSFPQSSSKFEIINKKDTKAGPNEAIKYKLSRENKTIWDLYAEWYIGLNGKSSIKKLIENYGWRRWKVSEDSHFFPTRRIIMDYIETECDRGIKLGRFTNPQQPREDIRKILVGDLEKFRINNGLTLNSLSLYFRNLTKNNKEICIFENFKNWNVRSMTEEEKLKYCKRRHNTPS
Outline: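 Using PURExpress in vitro transcription/translation, GST-tagged yeast transcription factors were made in full-length or DNA-binding-domain form. These were applied at about 100-200 nM to double-stranded universal all-10-mer Agilent arrays, and bound protein was detected with fluorescent anti-GST. Scans were normalised with masliner before the Universal PBM Analysis Suite assigned E-scores to ungapped eight-base words pooled with their reverse complements.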

Sequence | PBM E-score
ACCTTCTG | 0.102
ATGAGCCG | -0.116
GAGTTCCC | -0.0372
AGAGTATA | -0.202
AGACTTTC | -0.156
CTATCTCA | -0.0521
AAACCCCC | -0.23
ACATAATC | -0.0277
CAAGCTTG | 0.0375
ATGCCCTG | -0.127
GATGCGTA | 0.135
CAGTTCTC | -0.123
AGAGGAAT | 0.135
GTAAGGTA | 0.157
GCGCCGCC | 0.224
ATTCTACG | -0.194
GTGTACTA | -0.0173
GTCGGAAA | 0.0896
AATACGGG | 0.121
CGCCCGTC | -0.0567
AAGACCTA | 0.0634
ACAGCGCC | -0.0264
ACAGGTCA | -0.111
CTCGGGTA | 0.135
AATTTCAT | 0.0846

Sequence | PBM E-score
CGGGACCA | 0.00102
CATTTGAG | 0.0479
CACTGCTG | -0.0169
ATTCCCCG | -0.0914
GCTGTCGA | -0.192
CCCTATCC | -0.173
CACTTACA | -0.158
AAAGAAAT | 0.132
GGGGCTCA | -0.0765
AAAAAGCG | 0.117
ACCGACAA | 0.0337
CTGAGTGA | 0.178
AGTAGATC | 0.0883
AAGTCCCA | -0.2
AATATTCA | -0.131
CAACAGTA | 0.0711
AAAGTTCC | 0.074
CACAAATC | 0.145
CATTGGTC | -0.113
GGGGTGGA | -0.229
AACGAAAG | 0.0045
GTTTTCGA | -0.00716
CGTGAGCC | -0.101
CAGTTCGG | 0.0773
ATGTGTCG | -0.015

Sequence | PBM E-score
CACCTCTC | -0.241
CTAAGATA | 0.0423
AGTTTATG | 0.104
GAGCCGGC | -0.0542
TCATGAAA | 0.0894
TGTGTGAA | -0.0238
AGGTGGCG | -0.00306
ACCTTGGG | -0.13
ATCAATTA | 0.174
ACTTTCCG | -0.134
AGCAATAC | 0.0924
AATCTTAT | 0.00527
AACATGTA | 0.101
ACTTGAGA | -0.00095
AATGTAGT | 0.0188
TCTACAAA | -0.0185
GGCCCACC | -0.14
AGACCCCT | -0.0881
ATCAATGA | -0.0538
ATTAAACC | 0.0299
ATTCTTGG | 0.279
GGACTTGA | -0.227
CGGACGAA | 0.19
ACGGGCCC | -0.0243
GCGCTCCA | -0.0273

Sequence | PBM E-score
CCTACTCC | -0.0757
GACCCGCA | -0.0961
GAGGGGAA | 0.166
ACGTACTA | -0.118
CGATTCTC | -0.139
ATCGTCGC | -0.0626
CAGCGCGG | -0.145
GACAATAA | 0.0148
CTAGTAAC | 0.102
CGACACTC | -0.251
ATCCTCCG | -0.00232
CTTGTGTA | -0.103
CCGAAAGA | 0.171
CGCATCGC | -0.0699
CCCTTCTC | -0.098
GAATCTCC | 0.0335
ACCTCCTC | -0.194
CCGTTCAC | -0.0674
GAAGGTCA | -0.142
CCTACGAA | 0.192
ATTGATGG | 0.108
CGACGGAG | -0.146
CACCGGTG | -0.0693
GAATTGAC | 0.117
CCAGGGCG | -0.131

Sequence | PBM E-score
ATGCCTTG | -0.254
CTCCACGA | -0.0434
ACATCTGG | 0.105
GAAGGAGC | -0.00629
CGTGGGAC | 0.0757
CTGGCTCA | 0.0519
TCGAACAA | -0.00115
AATATAGG | 0.224
GCTATTCC | 0.00694
CGTCCTTA | -0.0366
GCGGGTCC | -0.0392
GCCCCACA | 0.202
AAAGAGCG | 0.0471
AACAAGCC | -0.0917
TGAACCAA | 0.022
AAATCAAA | 0.0655
ATCGCTAC | -0.0298
ACGGTATG | -0.226
AGTTACCG | -0.0176
AGTTTGTC | -0.218
CGCGCTCC | 0.0902
AACTCCGG | 0.179
GAGTGCTA | -0.0197
ATCTATAG | 0.063
ACATCAAG | 0.0653

Sequence | PBM E-score
CTGATCCA | -0.0593
GTAGACAA | -0.0655
GCGTATAA | 0.353
CATATTCG | 0.0926
GGGCGCAA | 0.126
GGATTATA | 0.0218
AACGTCAC | -0.0523
CACCGAAG | 0.0421
ATGATCCC | 0.143
GATAAATA | 0.126
TGGTTGAA | 0.0618
GGCTAAAC | 0.174
AGTTCGAG | 0.0999
AAATTCAC | -0.0273
CAGACCTA | -0.1
AACTCCGC | -0.289
CAACGACA | -0.0677
CCTTAGTA | -0.0122
ATTCAAAG | 0.0467
ACGGGGAG | -0.00023
CGTAACAG | -0.0691
CGCGGGTC | -0.00854
ATCATGCG | -0.152
CGCAAGGC | -0.127
ATCCTACA | 0.0169

Sequence | PBM E-score
CGGAGCAC | -0.0268
AAACCCTA | -0.0731
CAGACCCC | -0.047
ACCTCTGG | 0.0722
ACATGAGC | -0.137
GAACGATA | 0.00905
GACGAATC | 0.083
AGTAACAG | 0.0784
AAGCCCGG | 0.042
AGATACCC | -0.125
CGCTCATA | -0.237
CAACCAAG | 0.0892
CGGGGGCA | -0.15
CTCGAAAA | 0.0122
CAAAAACG | 0.0293
CTCCAACC | -0.0467
ATGCCCAC | 0.0675
CGGTTCTA | 0.137
GCGTCGCC | -0.00704
CAATTGCC | -0.042
CACCGCCA | -0.0548
GGATCACA | -0.152
ACAAATCA | -0.0754
AGAGATGG | -0.277
GTGATAAC | -0.0427

Sequence | PBM E-score
TAGAGAGA | -0.125
CCCCAGGG | -0.0617
AACCATCG | -0.148
AGCTCAGC | -0.0962
AAGCGGGG | 0.0275
CGTTTAAG | 0.0767
ACGCAGGG | 0.0336
CGCACTGC | -0.0795
GAAAAACC | -0.0156
AAATTTAC | 0.147
CTCGGTGC | 0.00227
AGTCTTAG | 0.114
CAGTTAGG | -0.0288
GGCACTTA | 0.0609
AAATAGGG | 0.18
TACGCCGA | -0.0187
GGTACCGA | -0.0279
CACAGCTG | -0.0818
ATTGTACC | -0.0167
CTCACGGC | -0.167
GTTATACA | -0.099
CCGGCCCC | 0.0519
ACCAGGGT | -0.0566
CAGAATGG | -0.225
GGGTAAAC | -0.0667

Sequence | PBM E-score
GAACAGTA | -0.154
ACCTTGAG | -0.184
TCAATGCA | -0.157
CTGATGTA | 0.0712
AGCGAATA | -0.0785
AAATGTGT | 0.0196
AGACGTCT | -0.18
GTGAATCA | 0.0197
AACTGTAC | -0.166
CTAGTTGC | 0.263
GCGCACAA | 0.0647
AAGAATAT | -0.0605
ACTCCTCG | 0.068
ACAGTGCG | -0.135
GAGCGATA | -0.152
GCGGAAAC | -0.0701
ATACCATC | 0.00422
CCTTGTTA | -0.0693
ATCTGATG | -0.00558
